Assay results taken from the supplement of paper PMC11417369.
The other results are listed elsewhere or left out.

Each sequence was assayed on PF3D7_0420300 AP2 domain 1 (GST-tagged) (assay: gcPBM binding intensity (ln(normalized median fluorescence intensity)); higher = stronger DNA binding).
Method in brief: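 An Agilent 4 × 180k array of primer-extended double-stranded 36-bp intergenic genomic probes, with negative controls, was incubated for 1 h with GST-tagged P. falciparum DNA-binding domains expressed in E. coli. Alexa488 anti-GST antibody detected bound protein, scanned at 488 nm. Binding intensity is the highest Masliner-normalised natural-log median intensity across replicate spots of either probe orientation.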

| Sequence | gcPBM binding intensity (ln) |
| --- | --- |
| TGAATTTAGATATATACACACAAAAGTAAATACAAT [CACACA_site5548] | 9.77 |
| GAATATTAAACAAACACACACACATATATATATATA [CACACA_site3382] | 9.78 |
| AGTAGTCTGGAGAAAAGTACACAGTATCTGGTAACC [XGTACX_site2035] | 9.28 |
| AATATATACATACATACATGCATACATATATATAAC [TGCATGCA_site371] | 9.37 |
| TTTAAATATATTCAATCACACACATTCGTTTTTTTT [CACACA_site7962] | 9.61 |
| GTATAAAAATTATATACACACAACAGAATTACATAT [CACACA_site133] | 9.8 |
| GTTTATTGATTTATTTGTACTTATATATATATTTCA [XGTACX_site5098] | 9.77 |
| TAAATACAGACATATACACACATATATATATATATA [CACACA_site4382] | 9.28 |
| ATGTATATGTTTTGTTGTACAAGTATTTTATATCTT [XGTACX_site3588] | 9.54 |
| TTTCAATTTATCAGTGTGCACAAAAATAAAATAAAA | 9.25 |
| ATTTCAAATTAATTTACACACTTCATACTAAAAGAC [CACACA_site3176] | 9.45 |
| TTGATATATAATAATACACACTTACATAATTAATTA [CACACA_site4320] | 9.35 |
| AAGGATATGAAAAGTAGTACAAAATTTAGAACACCC [XGTACX_site4758] | 9.63 |
| ATTATATTCTCCTTCACACACAAAAATATTTCATCA [CACACA_site5326] | 9.74 |
| TTACGATTAAATATAACACACAACATATTTTTAATA [CACACA_site2967] | 9.48 |
| CACAAAAATTTATACACACACATATATAATATATAT [CACACA_site152] | 9.88 |
| AAGTATTACAACCACACACACACCTATATATCATAG [CACACA_site7878] | 9.98 |
| ATCTTTTACGAATACACACACATAAAGAAAAAAAAA [CACACA_site1331] | 9.85 |
| ATACATATAAAAAAGTGTACATATTAAAATAAGTAT [XGTACX_site1310] | 9.5 |
| TTTTTTATAAATCAAATGAAAAATAAACTATTCAGA [CACACA_negctrl_site1568] | 8.75 |
| ATATCCGTTCAAAGATGTACATATATATTCTATAGA [XGTACX_site5354] | 9.17 |
| AATGCAAATAATAAAACACACAAAAAAAAGAAAAAA [CACACA_site1184] | 9.76 |
| TCATACAAACCTATTTGTACATAAGTATAATATATA [XGTACX_site4284] | 9.08 |

| Sequence | gcPBM binding intensity (ln) |
| --- | --- |
| TATTGCCCTGGACACACACACATATATATATATATA [CACACA_site5389] | 9.88 |
| ATAATATAAACATACACACACACATCTATATTTATA [CACACA_site7381] | 10.1 |
| ATTATTATTATATATGCATGTAAAATATTAAAGTAC [TGCATGCA_site914] | 9.31 |
| TTATGTTATATAAAAAGTACAAATTTTTTTTAATTA [XGTACX_site3435] | 8.76 |
| TCCTACATATAAAAATGTACCCATTGTTTTTTTTTT [XGTACX_site7205] | 9.11 |
| TATATATATATATATACACACATATACATATTGTTT [CACACA_site3499] | 9.3 |
| AATGTATATAGAAACATGCACACGTGGTTGTATATA [CACACA_site3278] | 9.6 |
| TTGTGTTAACTACCATGTACTTATACATCATAGGAA [XGTACX_site6627] | 8.97 |
| TTTTTGTATGCTTCCCGATTACATTATGTTGTAAAT [CACACA_negctrl_site227] | 9.53 |
| ATTTATGTTATATATACACACACAAAAGAAAAAAAA [CACACA_site8977] | 9.82 |
| ATTGTCTTTTAATAGTGTACTTATTTTAAATATTGC [XGTACX_site8517] | 9.39 |
| TTTCTAATATATAAAGTGCAATACCATTCAGAGTTA | 9.08 |
| ATATGGAAGAATTAAAGTACTTAAAAAAATGTCAGT [XGTACX_site6837] | 9.43 |
| TTTTATAGAGTGTATACATGCAATACCACATAAAAT [TGCATGCA_site476] | 9.29 |
| TATAATTTATAAGTAGTGCATTTCTTTTCATTTTTA | 9.22 |
| AAGAAAATAAAATAAAATAAAATAAAATAAAAATAT [TGCATGCA_negctrl_site493] | 9.46 |
| TTATTATATATAAGTAGTACAAACAATTAAGAGATA [XGTACX_site4009] | 9.47 |
| TGATGATATAAAAACACACACATATAACATAATACT [CACACA_site6687] | 9.95 |
| TTTCTTTCTATTGTTATATTTATAATAATTATAATT [XGTACX_negctrl_site215] | 9.33 |
| TATAAAATTACATTTTGTCATTTATTTTTTCCCACT [TGCATGCA_negctrl_site110] | 9.13 |
| TGTTTAAGTGTTTTTAGTACTTATAAAAATATTATC [XGTACX_site7379] | 8.96 |
| ATATTATCCCTATTTGCACACAAGAGTAATTTTTTA [CACACA_site3908] | 9.47 |
| CTTTTTAATTAATACACACACACACCCATATATATA [CACACA_site2292] | 10.2 |

| Sequence | gcPBM binding intensity (ln) |
| --- | --- |
| ATCACTTGAGAATAATTACATTAATATATATTTATG [TGCATGCA_negctrl_site581] | 9.14 |
| GGGAAAGAACCATATACATGCATATTTACCGTTAAA [TGCATGCA_site519] | 9.18 |
| CATATACATACACATACACACATACAGACATACACA [CACACA_site6919] | 9.83 |
| TGAAATTTTATTAATGTGCACATATATTTATTGTTC | 9.25 |
| TTTTTTTTTTTTAATACACACATATATATATTTATT [CACACA_site3994] | 9.48 |
| GTAAAAAAAAAAAAATGTACACATATATATAATATA [XGTACX_site159] | 9.18 |
| AACATAATTAAAAATTGTACAGAATTTCAATCGAAA [XGTACX_site7542] | 9.24 |
| ATAAAAATGTATATATGTACATATATATATATATAT [XGTACX_site1505] | 9.28 |
| ATATGTGTTAAAAATGCACACAAAAAAATATACATA [CACACA_site7988] | 9.52 |
| CAATTTTACTCATAAACACACATATATATGTTATTA [CACACA_site3152] | 9.32 |
| TGATATTATATTGTGATGCACTTTAAAAATATAAAG [GTGCAC_site9509] | 8.96 |
| ATGGTTTAATTATATACACACTCGAAAATAACGACA [CACACA_site3258] | 9.35 |
| TTTTACAAATGTTTTACACACACATAATTGTATCAA [CACACA_site4166] | 9.75 |
| AAAAAAAGGATGTACGTATCATAATTTTATTTTATA [CACACA_negctrl_site1543] | 9.12 |
| CTTATTTTATTCGAATGTACATAATTGTTAGACATT [XGTACX_site8583] | 9.14 |
| AATAATAACAAATGAACACACATATAGATGAGCAAA [CACACA_site7076] | 9.89 |
| TATCTCATGCGCACAAAAATATATGCAAAGAGTATA [TGCATGCA_negctrl_site201] | 9.21 |
| CTTAAGTAAAATTAAAGTACATGGACAAAAAATATA [XGTACX_site7900] | 9.42 |
| TGGGTATATATAAAAGGTACACAAAATGAAGATATA [XGTACX_site4994] | 9.51 |
| TAATTTCTTATGTATTGTACAAATAATATATTATAT [XGTACX_site1037] | 9.28 |
| TTTTCTGTGTTTTTGGGTACACACAAATAGCTTGTA [XGTACX_site8553] | 9.6 |
| TGTTTCTAAAAATTTACACACAAAATATTTCTACAT [CACACA_site4098] | 9.55 |
| CCTATAAAACCATATACACACATATATATAAAAAAA [CACACA_site4013] | 9.65 |

| Sequence | gcPBM binding intensity (ln) |
| --- | --- |
| TTATACGATAATATGACACACAATACAAAAATGTAA [CACACA_site1918] | 9.49 |
| TATTGTAGTCATGCACGTACAAAAGGAAAGTTAAAA [XGTACX_site4446] | 9.17 |
| AAATAAAATATTACATGTACATGTTCATAAAAAAAA [XGTACX_site1067] | 9.13 |
| ATAAATTAATGGAGAAATCTTATGAATTTATTTTAA [CACACA_negctrl_site1068] | 8.86 |
| AATAAAAAGGAACACACACACACACCGATATATATA [CACACA_site5895] | 10.2 |
| TACATACACAGACACACACACATATATATATATATA [CACACA_site3557] | 9.89 |
| TAAATATAAGTGTACATACACACTTTACAATCTCAT [CACACA_site3006] | 9.28 |
| AATATATACATATATACACACACATATATTATATAT [CACACA_site7980] | 9.84 |
| AAAAAAAAAAAAATTGCATGTAAATGAAATAATAAA [TGCATGCA_site116] | 9.16 |
| AAAGAAGAAAAATATAGTACAGGGCACATGTCCTGT [XGTACX_site6293] | 9.2 |
| TTATTTTTATATTTCACACACATATACTTTTACATA [CACACA_site4097] | 9.77 |
| ATTTAAATTTAAAAAACACACATAATATGATATATA [CACACA_site1973] | 9.45 |
| CTCTTTTCTTATAATACACACAGTAATATTTATATA [CACACA_site6824] | 9.47 |
| AATAAAAAAAATTTCTGTACATATATTTATTATATA [XGTACX_site1883] | 9.01 |
| CAAACCCACCAACACACACACACAAAAATGATTAAA [CACACA_site2432] | 9.82 |
| TACTTTTTTATTTGGTGTACAAATAAAATCATAATG [XGTACX_site1802] | 9.15 |
| ATATATTTTGATTGCACACAGAATTTAAATCATGAT [CACACA_site2343] | 9.36 |
| GAAGATATATAATAATTCATAGTTTTTTAATTTAAA [TGCATGCA_negctrl_site295] | 8.86 |
| TATATTTTTATGTGTGTGCACAAAATAACAAAATAT [GTGCAC_site9596] | 9.61 |
| ATTATTTTTTTTGAAGTGCAATATTATTTTTAATCA | 9.1 |
